In article PMC9911399, “Two distinct binding modes provide the RNA-binding protein RbFox with extraordinary sequence specificity”:
Positions count from the first letter of the chain named. The list shows a part of the results.

T1: RBFOX1 RRM (Homo sapiens, UniProt Q9NWB1 109-208)
T1 sequence: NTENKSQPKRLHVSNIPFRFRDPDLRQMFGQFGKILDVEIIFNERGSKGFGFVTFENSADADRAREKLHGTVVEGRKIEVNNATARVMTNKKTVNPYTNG

B1: GGAAUGG (DNA:RNA)
RNA: GGGAGACCGGAAUUCAGAUUGUCCGGAAUGGUUAAAUCCCGUCGUAGCCACCA
DNA 1: CAATCTGAATTCCGGTCTCCC
DNA 2: TGGTGGCTACGACGGGATT
B2: ACAAUCC (DNA:RNA)
RNA: B1 RNA with G25A, G26C, G30C, G31C
DNA 1: CAATCTGAATTCCGGTCTCCC
DNA 2: TGGTGGCTACGACGGGATT
B3: GGGCAGA (DNA:RNA)
RNA: B1 RNA with A27G, A28C, U29A, G31A
DNA 1: CAATCTGAATTCCGGTCTCCC
DNA 2: TGGTGGCTACGACGGGATT
B4: CAUUUCC (DNA:RNA)
RNA: B1 RNA with G25C, G26A, A27U, A28U, G30C, G31C
DNA 1: CAATCTGAATTCCGGTCTCCC
DNA 2: TGGTGGCTACGACGGGATT
B5: GCCUUAU (DNA:RNA)
RNA: B1 RNA with G26C, A27C, A28U, G30A, G31U
DNA 1: CAATCTGAATTCCGGTCTCCC
DNA 2: TGGTGGCTACGACGGGATT
B6: GAUGACU (DNA:RNA)
RNA: B1 RNA with G26A, A27U, A28G, U29A, G30C, G31U
DNA 1: CAATCTGAATTCCGGTCTCCC
DNA 2: TGGTGGCTACGACGGGATT
B7: GUGUGCU (DNA:RNA)
RNA: B1 RNA with G26U, A27G, A28U, U29G, G30C, G31U
DNA 1: CAATCTGAATTCCGGTCTCCC
DNA 2: TGGTGGCTACGACGGGATT
B8: AAUGCUC (DNA:RNA)
RNA: GGGAGACCGGAAUUCAGAUUGUCCAAUGCUCUUAAAUCCCGUCGUAGCCACCA
DNA 1: CAATCTGAATTCCGGTCTCCC
DNA 2: TGGTGGCTACGACGGGATT
B9: UUUGCGA (DNA:RNA)
RNA: B8 RNA with A25U, A26U, U30G, C31A
DNA 1: CAATCTGAATTCCGGTCTCCC
DNA 2: TGGTGGCTACGACGGGATT
B10: AGACCUC (DNA:RNA)
RNA: B8 RNA with A26G, U27A, G28C
DNA 1: CAATCTGAATTCCGGTCTCCC
DNA 2: TGGTGGCTACGACGGGATT
B11: UCUAAGA (DNA:RNA)
RNA: B1 RNA with G25U, G26C, A27U, U29A, G31A
DNA 1: CAATCTGAATTCCGGTCTCCC
DNA 2: TGGTGGCTACGACGGGATT
B12: ACGCCUG (DNA:RNA)
RNA: B8 RNA with A26C, U27G, G28C, C31G
DNA 1: CAATCTGAATTCCGGTCTCCC
DNA 2: TGGTGGCTACGACGGGATT
B13: CCCCAGU (DNA:RNA)
RNA: B1 RNA with G25C, G26C, A27C, A28C, U29A, G31U
DNA 1: CAATCTGAATTCCGGTCTCCC
DNA 2: TGGTGGCTACGACGGGATT
B14: GGAACCU (DNA:RNA)
RNA: B1 RNA with U29C, G30C, G31U
DNA 1: CAATCTGAATTCCGGTCTCCC
DNA 2: TGGTGGCTACGACGGGATT
B15: AACCGGC (DNA:RNA)
RNA: B8 RNA with U27C, G28C, C29G, U30G
DNA 1: CAATCTGAATTCCGGTCTCCC
DNA 2: TGGTGGCTACGACGGGATT
B16: UCGUCGG (DNA:RNA)
RNA: B1 RNA with G25U, G26C, A27G, A28U, U29C
DNA 1: CAATCTGAATTCCGGTCTCCC
DNA 2: TGGTGGCTACGACGGGATT
B17: UUCAAAG (DNA:RNA)
RNA: B1 RNA with G25U, G26U, A27C, U29A, G30A
DNA 1: CAATCTGAATTCCGGTCTCCC
DNA 2: TGGTGGCTACGACGGGATT
B18: UGAGUUA (DNA:RNA)
RNA: B1 RNA with G25U, A28G, G30U, G31A
DNA 1: CAATCTGAATTCCGGTCTCCC
DNA 2: TGGTGGCTACGACGGGATT
B19: CUCAGGG (DNA:RNA)
RNA: B1 RNA with G25C, G26U, A27C, U29G
DNA 1: CAATCTGAATTCCGGTCTCCC
DNA 2: TGGTGGCTACGACGGGATT
B20: CCGUAUC (DNA:RNA)
RNA: B8 RNA with A25C, A26C, U27G, G28U, C29A
DNA 1: CAATCTGAATTCCGGTCTCCC
DNA 2: TGGTGGCTACGACGGGATT
B21: CUGCGGU (DNA:RNA)
RNA: B1 RNA with G25C, G26U, A27G, A28C, U29G, G31U
DNA 1: CAATCTGAATTCCGGTCTCCC
DNA 2: TGGTGGCTACGACGGGATT
B22: AUAUCUA (DNA:RNA)
RNA: B8 RNA with A26U, U27A, G28U, C31A
DNA 1: CAATCTGAATTCCGGTCTCCC
DNA 2: TGGTGGCTACGACGGGATT
B23: AGCCAUU (DNA:RNA)
RNA: B8 RNA with A26G, U27C, G28C, C29A, C31U
DNA 1: CAATCTGAATTCCGGTCTCCC
DNA 2: TGGTGGCTACGACGGGATT
B24: AGUGCCC (DNA:RNA)
RNA: B8 RNA with A26G, U30C
DNA 1: CAATCTGAATTCCGGTCTCCC
DNA 2: TGGTGGCTACGACGGGATT
B25: CCUAUCU (DNA:RNA)
RNA: B1 RNA with G25C, G26C, A27U, G30C, G31U
DNA 1: CAATCTGAATTCCGGTCTCCC
DNA 2: TGGTGGCTACGACGGGATT
B26: AAGGUUA (DNA:RNA)
RNA: B8 RNA with U27G, C29U, C31A
DNA 1: CAATCTGAATTCCGGTCTCCC
DNA 2: TGGTGGCTACGACGGGATT
B27: GAAGUCU (DNA:RNA)
RNA: B1 RNA with G26A, A28G, G30C, G31U
DNA 1: CAATCTGAATTCCGGTCTCCC
DNA 2: TGGTGGCTACGACGGGATT
B28: AAGCGGC (DNA:RNA)
RNA: B8 RNA with U27G, G28C, C29G, U30G
DNA 1: CAATCTGAATTCCGGTCTCCC
DNA 2: TGGTGGCTACGACGGGATT
B29: UAUUUAA (DNA:RNA)
RNA: B8 RNA with A25U, G28U, C29U, U30A, C31A
DNA 1: CAATCTGAATTCCGGTCTCCC
DNA 2: TGGTGGCTACGACGGGATT
B30: CAAGGCA (DNA:RNA)
RNA: B8 RNA with A25C, U27A, C29G, U30C, C31A
DNA 1: CAATCTGAATTCCGGTCTCCC
DNA 2: TGGTGGCTACGACGGGATT
B31: UCUCCUC (DNA:RNA)
RNA: B8 RNA with A25U, A26C, G28C
DNA 1: CAATCTGAATTCCGGTCTCCC
DNA 2: TGGTGGCTACGACGGGATT

These binders were tested against T1, RBFOX1 RRM (assay: EMSA; HiTS-Eq, 1 nM pool, 10 min; buffer printed only for the single-RNA assays: 10 mM Tris pH 7.5, 150 mM NaCl, 3.4 mM EDTA, 0.001% NP-40, 30 C). Conditions: tags: His6 N-terminal (pET28a); label: 5' 32P.
Method in brief: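 Relative association constants, normalised to the cognate motif, were derived by comparing read counts of each RNA species with those of the control reaction. The RNA sequenced was the free fraction, separated by 8% native PAGE after a 10 min equilibration in 50 µL of 1 nM 5′-radiolabelled RNA (7 randomized nucleotides) with increasing concentrations of purified wild-type or mutant RbFox RRM.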
B1 was tested, and the binding signal was 0.0293 KA relative to UGCAUGU. B2 was tested, and the binding signal was 0.00114 KA relative to UGCAUGU. In the case of B3, the binding signal is reported as 0.015 KA relative to UGCAUGU. With B4 the binding signal was 0.00121 KA relative to UGCAUGU. For B5, the binding signal was 0.00811 KA relative to UGCAUGU. In the case of B6, the binding signal is reported as 0.0125 KA relative to UGCAUGU. B7 was tested, and the binding signal was 0.0177 KA relative to UGCAUGU. With B8 the binding signal was 0.0123 KA relative to UGCAUGU. In the case of B9, the binding signal is reported as 0.0165 KA relative to UGCAUGU. With B10 the binding signal was 0.00036 KA relative to UGCAUGU. In the case of B11, the binding signal is reported as 0.0083 KA relative to UGCAUGU. For B12, the binding signal was 0.0206 KA relative to UGCAUGU. With B13 the binding signal was 0.00445 KA relative to UGCAUGU. For B14, the binding signal was 0.0104 KA relative to UGCAUGU. In the case of B15, the binding signal is reported as 0.00337 KA relative to UGCAUGU. For B16, the binding signal was 0.0171 KA relative to UGCAUGU. With B17 the binding signal was 0.00829 KA relative to UGCAUGU. For B18, the binding signal was 0.0158 KA relative to UGCAUGU. In the case of B19, the binding signal is reported as 0.00404 KA relative to UGCAUGU. B20 was tested, and the binding signal was 0.00588 KA relative to UGCAUGU. With B21 the binding signal was 0.017 KA relative to UGCAUGU. B22 was tested, and the binding signal was 0.00122 KA relative to UGCAUGU. B23 was tested, and the binding signal was 0.00149 KA relative to UGCAUGU. B24 was tested, and the binding signal was 0.00775 KA relative to UGCAUGU. With B25 the binding signal was 0.00242 KA relative to UGCAUGU. For B26, the binding signal was 0.00344 KA relative to UGCAUGU. With B27 the binding signal was 0.0143 KA relative to UGCAUGU. For B28, the binding signal was 0.00979 KA relative to UGCAUGU. B29 was tested, and the binding signal was 0.00757 KA relative to UGCAUGU. For B30, the binding signal was 0.0111 KA relative to UGCAUGU. With B31 the binding signal was 0.00621 KA relative to UGCAUGU.
